Results reported in the supplement of paper PMC9542798.

Legend:
Assay in all cases: minimum inhibitory concentration
[1] = compound: CC1(C)S[C@@H]2[C@H](NC(=O)[C@H](N)c3ccccc3)C(=O)N2[C@H]1C(=O)O [Ampicillin]
Description: (§1)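 Broth microdilution MIC per ISO 10932 on precoated VetMIC Lact-1 plates (tylosin, vancomycin and ampicillin plates prepared manually) against lactic acid bacteria and bifidobacteria isolates. Plates were read visually after 48 h anaerobic incubation (bifidobacteria 72 h; enterococci and staphylococci 24 h aerobic) at species-specific temperatures of 30 or 37 °C. Values prefixed with < or > are outside the tested dilution range.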

[2] = compound: CCC[C@@H]1C[C@@H](C(=O)N[C@@H]([C@H]2O[C@H](SC)[C@H](O)[C@@H](O)[C@H]2O)[C@H](C)Cl)N(C)C1 [Clindamycin]
Description: as §1

[3] = compound: CC[C@H]1OC(=O)[C@H](C)[C@@H](O[C@H]2C[C@@](C)(OC)[C@@H](O)[C@H](C)O2)[C@H](C)[C@@H](O[C@@H]2O[C@H](C)C[C@H](N(C)C)[C@H]2O)[C@](C)(O)C[C@@H](C)C(=O)[C@H](C)[C@@H](O)[C@]1(C)O [Erythromycin]
Description: as §1

[4] = compound: CN(C)[C@@H]1C(O)=C(C(N)=O)C(=O)[C@@]2(O)C(O)=C3C(=O)c4c(O)cccc4[C@@](C)(O)[C@H]3C[C@@H]12 [Tetracycline]
Description: as §1

[5] = compound: CNC(C)C1CCC(N)C(OC2C(N)CC(N)C(OC3OCC(C)(O)C(NC)C3O)C2O)O1 [Gentamicin]
Description: as §1

[6] = compound: CN[C@@H]1[C@H](O[C@H]2[C@H](O[C@H]3[C@H](O)[C@@H](O)[C@H](N=C(N)N)[C@@H](O)[C@@H]3N=C(N)N)O[C@@H](C)[C@]2(O)C=O)O[C@@H](CO)[C@H](O)[C@H]1O [Streptomycin]
Description: as §1

[7] = compound: CN[C@H](CC(C)C)C(=O)N[C@H]1C(=O)N[C@@H](CC(N)=O)C(=O)N[C@H]2C(=O)N[C@H]3C(=O)N[C@H](C(=O)N[C@H](C(=O)O)c4cc(O)cc(O)c4-c4cc3ccc4O)[C@H](O)c3ccc(c(Cl)c3)Oc3cc2cc(c3O[C@@H]2O[C@H](CO)[C@@H](O)[C@H](O)[C@H]2O[C@H]2C[C@](C)(N)[C@H](O)[C@H](C)O2)Oc2ccc(cc2Cl)[C@H]1O [Vancomycin]
Description: as §1

[8] = compound: NC[C@@H]1O[C@H](O[C@H]2[C@@H](O)[C@H](O[C@@H]3[C@@H](O)[C@H](N)C[C@H](N)[C@H]3O[C@H]3O[C@H](CN)[C@@H](O)[C@H](O)[C@H]3N)O[C@@H]2CO)[C@H](N)[C@@H](O)[C@@H]1O [Neomycin]
Description: as §1

[9] = compound: NC[C@H]1O[C@H](O[C@H]2[C@H](O)[C@@H](O[C@H]3O[C@H](CO)[C@@H](O)[C@H](N)[C@H]3O)[C@H](N)C[C@@H]2N)[C@H](O)[C@@H](O)[C@@H]1O [Kanamycin]
Description: as §1

[10] = compound: O=C(N[C@H](CO)[C@H](O)c1ccc([N+](=O)[O-])cc1)C(Cl)Cl [Chloramphenicol]
Description: as §1
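Note: isolates derived from commercial starter, protective, probiotic or feed-additive cultures, from fermented products, from human gut mucosa or feces, and from human milk or colostrum.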

Test System | minimum inhibitory concentration [1] | minimum inhibitory concentration [2] | minimum inhibitory concentration [3] | minimum inhibitory concentration [4] | minimum inhibitory concentration [5] | minimum inhibitory concentration [6] | minimum inhibitory concentration [7] | minimum inhibitory concentration [8] | minimum inhibitory concentration [9] | minimum inhibitory concentration [10]
Lactobacillus gasseri IM886 (strain group: human milk or colostrum) | 1 µg/mL | 8 µg/mL | 0.12 µg/mL | 2 µg/mL | 2 µg/mL | 8 µg/mL | 1 µg/mL | 16 µg/mL | 64 µg/mL | 4 µg/mL
Lactococcus lactis IM1323 (strain group: non-starter strains) | 1 µg/mL | 0.5 µg/mL | 1 µg/mL | 32 µg/mL | 4 µg/mL | > 256 µg/mL | 0.5 µg/mL | 8 µg/mL | 16 µg/mL | 8 µg/mL
Bifidobacterium adolescentis IM674 (strain group: human intestinal mucosa or faeces) | 0.125 µg/mL | 0.25 µg/mL | 8 µg/mL | 0.5 µg/mL | 32 µg/mL | 16 µg/mL | 2 µg/mL | 16 µg/mL | 256 µg/mL | 1 µg/mL
Lactobacillus gasseri IM725 (strain group: human milk or colostrum) | 0.5 µg/mL | 0.12 µg/mL | 0.12 µg/mL | 1 µg/mL | 2 µg/mL | 16 µg/mL | 2 µg/mL | 16 µg/mL | 64 µg/mL | 4 µg/mL
Streptococcus thermophilus IM1415 (strain group: starter cultures) | 0.125 µg/mL | < 0.03 µg/mL | 0.06 µg/mL | 0.25 µg/mL | 1 µg/mL | 4 µg/mL | < 0.25 µg/mL | 2 µg/mL | 16 µg/mL | 2 µg/mL
Bifidobacterium adolescentis IM757 (strain group: human intestinal mucosa or faeces) | 0.25 µg/mL | 0.06 µg/mL | 0.12 µg/mL | 1 µg/mL | 64 µg/mL | 128 µg/mL | 0.5 µg/mL | 64 µg/mL | 512 µg/mL | 2 µg/mL
Lactobacillus gasseri IM820 (strain group: human milk or colostrum) | 1 µg/mL | 4 µg/mL | 0.25 µg/mL | 2 µg/mL | 4 µg/mL | 4 µg/mL | 1 µg/mL | 16 µg/mL | 128 µg/mL | 4 µg/mL
Bifidobacterium adolescentis IM783 (strain group: human intestinal mucosa or faeces) | 0.25 µg/mL | 0.12 µg/mL | 0.25 µg/mL | 16 µg/mL | 256 µg/mL | > 256 µg/mL | 0.5 µg/mL | > 256 µg/mL | 1020 µg/mL | 2 µg/mL
Lactobacillus gasseri IM816 (strain group: human milk or colostrum) | 0.5 µg/mL | 0.5 µg/mL | 0.12 µg/mL | 2 µg/mL | 8 µg/mL | 8 µg/mL | 2 µg/mL | 32 µg/mL | 128 µg/mL | 4 µg/mL
Bifidobacterium longum IM949 (strain group: human intestinal mucosa or faeces) | 1 µg/mL | 0.12 µg/mL | 0.25 µg/mL | 2 µg/mL | 32 µg/mL | > 256 µg/mL | 0.5 µg/mL | 64 µg/mL | 256 µg/mL | 2 µg/mL
Lactobacillus gasseri IM890 (strain group: human milk or colostrum) | 1 µg/mL | 2 µg/mL | 0.03 µg/mL | 4 µg/mL | 1 µg/mL | 2 µg/mL | 0.5 µg/mL | 8 µg/mL | 16 µg/mL | 4 µg/mL
Limosilactobacillus fermentum IM815 (strain group: human milk or colostrum) | 0.5 µg/mL | 0.06 µg/mL | 0.25 µg/mL | 8 µg/mL | 2 µg/mL | 32 µg/mL | > 128 µg/mL | 2 µg/mL | 64 µg/mL | 8 µg/mL
Bifidobacterium adolescentis IM679 (strain group: human intestinal mucosa or faeces) | 0.25 µg/mL | 0.06 µg/mL | 0.12 µg/mL | 16 µg/mL | 256 µg/mL | 128 µg/mL | 0.5 µg/mL | 256 µg/mL | 512 µg/mL | 2 µg/mL
Lactobacillus gasseri IM853 (strain group: human milk or colostrum) | 1 µg/mL | 4 µg/mL | 0.12 µg/mL | 2 µg/mL | 2 µg/mL | 4 µg/mL | 2 µg/mL | 16 µg/mL | 128 µg/mL | 4 µg/mL
Lactobacillus gasseri IM918 (strain group: human milk or colostrum) | 0.5 µg/mL | 8 µg/mL | 0.12 µg/mL | 2 µg/mL | 4 µg/mL | 8 µg/mL | 1 µg/mL | 32 µg/mL | 128 µg/mL | 4 µg/mL
Lactobacillus acidophilus IM1406 (strain group: starter cultures) | 1 µg/mL | 0.5 µg/mL | 0.12 µg/mL | 0.5 µg/mL | 2 µg/mL | 4 µg/mL | 1 µg/mL | 2 µg/mL | 32 µg/mL | 4 µg/mL
Lactococcus lactis subsp. cremoris IM1449 (strain group: starter cultures) | 0.5 µg/mL | 0.12 µg/mL | 0.12 µg/mL | 0.25 µg/mL | < 0.5 µg/mL | 2 µg/mL | < 0.25 µg/mL | < 0.5 µg/mL | < 2 µg/mL | 2 µg/mL
